# Laboratory results published in the supplement of paper PMC4604168 (melanoma cell lines).
# This is one part of the list. Most values come without repeats; read them as rough.
# Legend:
# Test in all cases: cell count relative to DMSO control; melanoma cells; higher = more viable cells
# Conditions in all cases: library dose: low library concentration; 72 h
# [1] = test system: WM115
# [2] = test system: WM1716
# [3] = test system: WM1745
# [4] = test system: WM3526
# [5] = test system: WM3619
# [6] = test system: WM451Lu
# 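Also: cell number obtained by counting DAPI-stained nuclei in high-throughput microscope images with image analysis software, screen run in 1,536-well plates.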
Compound,cell count [1] [%],cell count [2] [%],cell count [3] [%],cell count [4] [%],cell count [5] [%],cell count [6] [%]
"O=C(/C=C/c1cccnc1)NCCCCC1CCN(C(=O)c2ccccc2)CC1 + Nc1ccn([C@@H]2O[C@H](CO)[C@@H](O)C2(F)F)c(=O)n1 [gemcitabine] (first compound 0.01 µM, partner dose 0.0004 µM)",96.9,97.4,87.7,106,73.7,101
"O=C(/C=C/c1cccnc1)NCCCCC1CCN(C(=O)c2ccccc2)CC1 + O=S(=O)(c1ccccc1)N(CC(F)(F)F)c1ccc(C(O)(C(F)(F)F)C(F)(F)F)cc1 [T0901317] (first compound 0.01 µM, partner dose 1.4 µM)",83.9,91.8,85.3,99.9,71.7,140
"CC1(C)CCC(c2ccc(Cl)cc2)=C(CN2CCN(c3ccc(C(=O)NS(=O)(=O)c4ccc(N[C@H](CCN5CCOCC5)CSc5ccccc5)c(S(=O)(=O)C(F)(F)F)c4)cc3)CC2)C1 + COc1ccc(Cl)c(Nc2nc3ccccc3nc2NS(=O)(=O)c2cccc(NC(=O)C(C)(C)N)c2)c1 [XL147] (first compound 0.4 µM, partner dose 0.8 µM)",89.9,66.6,25.3,88.7,67.8,92
"O=C(/C=C/c1cccnc1)NCCCCC1CCN(C(=O)c2ccccc2)CC1 + NC(=O)Nc1cc(-c2cccc(F)c2)sc1C(=O)N[C@H]1CCCNC1 [AZD7762] (first compound 0.01 µM, partner dose 0.02 µM)",76.8,98.9,84.2,77,47.5,108
"O=C(/C=C/c1cccnc1)NCCCCC1CCN(C(=O)c2ccccc2)CC1 + CNC(=O)c1cc(Oc2ccc(NC(=O)Nc3ccc(Cl)c(C(F)(F)F)c3)cc2)ccn1 [sorafenib] (first compound 0.01 µM, partner dose 0.4 µM)",103,94.9,102,101,81.1,120
"CC1(C)CCC(c2ccc(Cl)cc2)=C(CN2CCN(c3ccc(C(=O)NS(=O)(=O)c4ccc(N[C@H](CCN5CCOCC5)CSc5ccccc5)c(S(=O)(=O)C(F)(F)F)c4)cc3)CC2)C1 + Cc1ccc(Nc2nccc(N(C)c3ccc4c(C)n(C)nc4c3)n2)cc1S(N)(=O)=O [Pazopanib] (first compound 0.4 µM, partner dose 0.4 µM)",79.4,61.8,14.5,82.5,90.5,82.7
"Cc1ccc(Nc2nccc(N(C)c3ccc4c(C)n(C)nc4c3)n2)cc1S(N)(=O)=O [Pazopanib] + COc1ccc(C2=N[C@@H](c3ccc(Cl)cc3)[C@@H](c3ccc(Cl)cc3)N2C(=O)N2CCNC(=O)C2)c(OC(C)C)c1 [Nutlin-3] (first compound 0.4 µM, partner dose 0.1 µM)",80.2,82,88,111,80.3,130
"CC1(C)CCC(c2ccc(Cl)cc2)=C(CN2CCN(c3ccc(C(=O)NS(=O)(=O)c4ccc(N[C@H](CCN5CCOCC5)CSc5ccccc5)c(S(=O)(=O)C(F)(F)F)c4)cc3)CC2)C1 + COc1cc(Nc2ncc(F)c(Nc3ccc4c(n3)NC(=O)C(C)(C)O4)n2)cc(OC)c1OC [Tamatinib] (first compound 0.4 µM, partner dose 0.4 µM)",49,84.4,11.1,90.6,61.5,114
"Cc1ccc(Nc2nccc(N(C)c3ccc4c(C)n(C)nc4c3)n2)cc1S(N)(=O)=O [Pazopanib] + COc1ccc2c(c1)CCC1C2CCC2(C)C(NCCCCCCN3C(=O)C=CC3=O)CCC12 [U73122] (first compound 0.4 µM, partner dose 0.4 µM)",91.8,71.8,77.7,89.9,79.4,93.2
"Cc1ccc(Nc2nccc(N(C)c3ccc4c(C)n(C)nc4c3)n2)cc1S(N)(=O)=O [Pazopanib] + Clc1ccc(Nc2nnc(Cc3ccncc3)c3ccccc23)cc1 [vatalanib] (first compound 0.4 µM, partner dose 2 µM)",101,94.2,86.5,74.8,83.6,90
"CC1(C)CCC(c2ccc(Cl)cc2)=C(CN2CCN(c3ccc(C(=O)NS(=O)(=O)c4ccc(N[C@H](CCN5CCOCC5)CSc5ccccc5)c(S(=O)(=O)C(F)(F)F)c4)cc3)CC2)C1 + OCCn1cc(-c2cnc3nnn(Cc4ccc5ncccc5c4)c3n2)cn1 [PF04217903] (first compound 0.4 µM, partner dose 1 µM)",83.8,87,22.9,109,83.7,96.8
